{"source": "PubChem BioAssay AID1656", "about": "(Sanford-Burnham Center for Chemical Genomics, 2009)", "note": "Some of the results follow. Shown are side measurements of this screen, not its main read-out; they come without a call. Most of these compounds were active or inconclusive in the main read-out, so they are no random draw."}
{"assay": "inhibitors of hepatocyte lipid droplet formation, primary screen, imaging, high-throughput imaging, BODIPY stain (AID 1656);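 note: cells counted across two imaged fields per well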", "conditions": "AML12 mouse hepatocytes, oleate lipid droplets, measured here: cell count, cytotoxicity flag, at 6.5 µM", "outline": "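Assay system: AML12 hepatocytes (mouse); Probe or stimulus: oleic acid at 100 µM to induce lipid droplet formation; Dosing: compound at 6.5 µM only; Schedule: compound with oleate, overnight; Detection: fluorescence imaging, 20x objective, two fields per well; Measure: % inhibition of lipid droplet signal.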", "units": {"cell count": "cells"}}
{"smiles": "O=C(Nc1nc2ccccc2s1)c1ccc(OCC2CCCO2)cc1", "note": "(stereo not given)", "cell count": 580}
{"smiles": "CCc1ccccc1NC(=O)COc1ccc(C(=S)N2CCCC2)cc1", "cell count": 690}
{"smiles": "CCOc1ccc(CCNC(=O)c2cc3sccc3n2CC)cc1OCC", "cell count": 790}
{"smiles": "COc1ccccc1CNS(=O)(=O)c1ccc2c(c1)CC(C)N2C(=O)C1CC1", "note": "(stereo not given)", "cell count": 694}
{"smiles": "CCCCCCNC(=O)c1cn(CC)c2cc(N3CCN(C)CC3)c(F)cc2c1=O", "cell count": 734}
{"smiles": "FC(F)Oc1ccc(-c2csc(NNC3=NCCCCC3)n2)cc1", "cell count": 620}
{"smiles": "CCOC(=O)c1ccccc1NC(=O)Cn1c(-c2nonc2N)nc2ccccc21", "cell count": 252}
{"smiles": "c1cc2c3c(cccc3c1)NC1(CCC3(CC1)Nc1cccc4cccc(c14)N3)N2", "cell count": 762}
{"smiles": "COc1ccc2c(c1)-c1c(ssc1=S)C(C)(C)N2S(=O)(=O)c1ccc(C)cc1", "cell count": 551}
{"smiles": "Cc1ccccc1OCC(=O)NCCCNC(=O)c1ccccn1", "cell count": 709}
{"smiles": "COc1ccc(CCn2ccc(O)c(Cc3ccc(Cl)cc3)c2=O)cc1OC", "cell count": 693}
{"smiles": "Cc1cc(=O)oc2cc(OCC(=O)NCCCN3CCCC3=O)ccc12", "cell count": 642}
{"smiles": "c1cc2c(cc1-c1csc(NNC3=NCCCCC3)n1)OCCO2", "cell count": 689}
{"smiles": "CCOC(=O)c1ccc(NC(=O)CSc2nc3c(c(=O)n2-c2ccccc2OC)SCC3)cc1", "cell count": 648}
{"smiles": "CCn1c2ccccc2c2cc(Nc3cc(C)nc4ncnn34)ccc21", "cell count": 268}
{"smiles": "O=C(NCc1cccs1)C1CCC(CNS(=O)(=O)c2cccs2)CC1", "note": "(stereo not given)", "cell count": 768}
{"smiles": "COc1ccc(C(=O)NC2CCCc3c2cnn3-c2cccc(C)c2C)o1", "note": "(stereo not given)", "cell count": 692}
{"smiles": "COc1ccc(NC(=O)C(=O)c2cn(CC(=O)N3CCCC3)c3ccccc23)cc1", "cell count": 223}
{"smiles": "Cc1nn(-c2ccccc2)c(N2CCCC2)c1/C=N/Nc1ccc(S(=O)(=O)Nc2ccccc2)cc1[N+](=O)[O-]", "cell count": 664}
{"smiles": "CCCCOc1ccc(Br)cc1/C(C)=N/NC1=NCCN1", "cell count": 243}
{"smiles": "COc1ccccc1Nc1ccc(NC(=O)c2cccc([N+](=O)[O-])c2C)cc1", "cell count": 843}
{"smiles": "COc1ccc(C)cc1S(=O)(=O)N(CC(=O)Nc1cc([N+](=O)[O-])ccc1C)c1ccc(C)c(C)c1", "cell count": 678}
{"smiles": "COc1ccc(CCNC(=O)C2CC3Cn4c(nc5cc6ccccc6cc54)C3N2C)cc1", "note": "(stereo not given)", "cell count": 765}
{"smiles": "CCc1cc(SC#N)cc(C)c1NC(=O)CCl", "cell count": 623}
{"smiles": "O=C(CCl)N=c1sccn1Cc1ccc(Cl)cc1Cl", "cell count": 215}
{"smiles": "C=CCN1C(=O)/C(=C\\C=C2\\N(C)c3ccccc3C2(C)C)SC1=S", "cell count": 690}
{"smiles": "COc1ccc(C2(c3ccc(OC)cc3)NC(=O)N(CC(=O)Nc3ccc(OC)c(OC)c3)C2=O)cc1", "cell count": 807}
{"smiles": "Cc1ccc(NC(=O)CSc2nnc(C)c(=O)n2N)cc1Cl", "cell count": 725}
{"smiles": "COc1ccc(NC(=O)CCC(=O)Nc2cc(OC)c(NC(=O)c3cccs3)cc2OC)cc1", "cell count": 699}
{"smiles": "FC(F)(F)c1ccc(Cl)c(NC(=S)N/N=C/c2ccccc2C(F)(F)F)c1", "cell count": 666}
{"smiles": "C=CCNC(=S)Nc1cc(S(=O)(=O)N2CCOCC2)ccc1-n1cncn1", "cell count": 591}
{"smiles": "Cc1ccc(N(C)S(=O)(=O)c2ccc(-c3cnc(C4CC4)o3)cc2)cc1", "cell count": 211}
{"smiles": "COc1cc(C2C(C#N)=C(C)NC3=C2C(=O)c2ccccc23)cc(OC)c1OC", "note": "(stereo not given)", "cell count": 284}
{"smiles": "COc1ccc(CCNC(=O)c2cc(-c3ccccc3)c(N3CCOCC3)s2)c(OC)c1OC", "cell count": 757}
{"smiles": "CC1CCCCN1Cc1ccc(N)cc1", "note": "(stereo not given)", "cell count": 164}
{"smiles": "COc1c(C)cc(Br)cc1C(=O)Nc1cccc(NC(=O)c2ccco2)c1", "cell count": 717}
{"smiles": "Cc1ccc(NC(=O)Cc2ccc3c(c2)CCCC3)cc1C", "cell count": 487}
{"smiles": "Cc1ccc(CCC(=O)Nc2ncc(Cc3cccc(Cl)c3Cl)s2)o1", "cell count": 33}
{"smiles": "O=C(N/N=C/C(Br)=C/c1ccccc1)c1n[nH]c2c1CCC2", "cell count": 147}
{"smiles": "CCOc1ccccc1/C=C(/NC(=O)c1ccccc1)C(=O)NCC(=O)O", "cell count": 503}
{"smiles": "COc1cc(NC(=O)c2oc3ccccc3c2C)ccc1NC(=O)c1ccco1", "cell count": 780}
{"smiles": "COc1ccc(/C=C(\\NC(=O)c2cccs2)C(=O)Nc2cccc3ccccc23)cc1OC", "cell count": 622}
{"smiles": "Cn1c(=O)c(=O)n(C)c2cc(N3CCCC3)c(NS(=O)(=O)c3ccc(Cl)cc3)cc21", "cell count": 669}
{"smiles": "CCOc1ccc(CCNC(=O)Cn2nc(C)c3c(C)n(-c4ccccc4)nc3c2=O)cc1OCC", "cell count": 722}
{"smiles": "CC(C)(C)C(=O)Nc1nc2c(s1)COc1ccccc1-2", "cell count": 635}
{"smiles": "CC1CC(C)CN(C(=O)CSCC(=O)Nc2nc(-c3cccs3)cs2)C1", "note": "(stereo not given)", "cell count": 598}
{"smiles": "Cc1ccc(-c2nnc(OCc3cccnc3)c3ccccc23)cc1", "cell count": 651}
{"smiles": "O=S1(=O)N=C(Oc2cccc3ccccc23)c2ccccc21", "cell count": 734}
{"smiles": "COc1ccc(C(C(=O)NC(C)(C)C)N(CC2CCCO2)C(=O)CCC(=O)Nc2cc(C)on2)cc1", "note": "(stereo not given)", "cell count": 769}
{"smiles": "CCn1c(=O)n(CC)c2cc(N)ccc21", "cell count": 760}
{"smiles": "CCOC(=O)n1cc(-c2cnc(CNC(=O)C(C)(c3ccccc3)c3ccccc3)o2)c2ccccc21", "cell count": 704}
{"smiles": "COc1cccc(-c2cc(C(=O)Nc3ccc([N+](=O)[O-])cn3)c3ccccc3n2)c1", "cell count": 635}
{"smiles": "CCOc1ccc(C2=Nc3ccc(Br)cc3C(c3ccc(N4CCOCC4)cc3)=NN2)cc1", "cell count": 669}
{"smiles": "CCOc1ccc(CCNC(=O)CN2C(=O)c3cccnc3Oc3ccc(C)cc32)cc1OCC", "cell count": 869}
{"smiles": "COc1ccc(NC(=O)[C@H](C)NC(=O)[C@@H]2Cc3ccccc3CN2C(=O)OC(C)(C)C)cc1", "cell count": 701}
{"smiles": "CS(=O)(=O)N(CC(=O)Nc1ccccc1Br)Cc1ccccc1", "cell count": 791}
{"smiles": "COc1ccc(CCNC(=O)c2ccc(CNc3nc(=S)[nH]c4ccccc34)cc2)cc1OC", "cell count": 681}
{"smiles": "CCCCOc1ccccc1C(=O)N(Cc1ccc(C)o1)C1CCS(=O)(=O)C1", "note": "(stereo not given)", "cell count": 683}
{"smiles": "Cc1ccc(C2=NC3(CCCCC3)N=C2SCC(=O)Nc2ccc3c(c2)OCCO3)cc1", "cell count": 720}
{"smiles": "N#CC1=C(N)OC2=C(CCc3ccccc32)C1c1ccccc1Cl", "note": "(stereo not given)", "cell count": 218}
{"smiles": "CCCC(=O)Nc1cccc(C(=O)Nc2ccccc2OCC)c1", "cell count": 736}
{"smiles": "Nc1cc2c3c(cccc3c1)C(=O)N(CCN1CCCC1)C2=O", "cell count": 298}
{"smiles": "CCOc1ccc(NC(=O)CSc2nc3ccccc3nc2N2CCCC2)cc1", "cell count": 806}
{"smiles": "CC(Sc1nnc(Nc2ccccc2)s1)C(=O)Nc1nc(-c2ccccc2)cs1", "note": "(stereo not given)", "cell count": 675}
{"smiles": "CSc1nc(N(C)NC(=O)c2ccccc2)c2ccccc2n1", "cell count": 189}
